± gives the standard deviation of the averaged measurements. Some of the results follow.
test system: PfAP2-EXP AP2 domain (GST-tagged); assay: gcPBM binding intensity (ln(normalized median fluorescence intensity)); higher = stronger DNA binding
Summary of the method: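 Binding intensity is defined as the maximum Masliner-normalised natural-log median intensity across replicate spots for either probe orientation. It was measured on an Agilent 4 × 180k array of primer-extended double-stranded 36-bp intergenic genomic probes and negative controls, to which GST-tagged P. falciparum DNA-binding domains made in E. coli were applied for 1 h in 1× PBS with 1% milk, 0.2 mg/ml BSA, 0.5% salmon testes DNA and 0.03% Triton X-100. Detection was by Alexa488 anti-GST antibody and scanning at 488 nm.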

Sequence	gcPBM binding intensity (ln)
ATGGACATTTTATAAATCACAATGGATATTTTATAA [CACACA_negctrl_site1830]	8.37 ± 0.61
TTTTTTTTTTTTTTGTGTACATATAATGCACATTAT [XGTACX_site6505]	8.52 ± 0.4
TACTTTTATATAGAAAGTACATACAATTCATAGAAT [XGTACX_site2182]	8.42 ± 0.38
CATAAATACATACATACACACATATTTATATTTATA [CACACA_site7071]	8.47 ± 0.39
ATATACATATATATATGTACTGAAAAGAAAAGAATT [XGTACX_site150]	8.78 ± 0.38
ATAATTATATATATATGTACATATTATATATATATA [XGTACX_site4526]	9.53 ± 0.28
TGTTTTTAAATTTAAATCAAAAAATAAAATAAAATA [GTGCAC_negctrl_site355]	8.34 ± 0.48
AAGATAACAAGTAATCAATCTAATTATTAATTATAT [CACACA_negctrl_site1713]	8.06 ± 0.44
AAAAATATGTGATAATGTACTTTTCATTTTTATTTT [XGTACX_site8544]	8.36 ± 0.39
AAAAGAAAAATGTCATATGATATCATATATTTTATA [GTGCAC_negctrl_site185]	8.2 ± 0.38
AATATAATATAATGCACACATAAACAAAAAAAAAAT [CACACA_site1304]	8.9 ± 0.45
TTCATTTGAAAACTGTGTACTTAAAAATATACATAT [XGTACX_site176]	8.24 ± 0.21
ATATATTTAAATAAATGTACAAATCATAAATTCAAG [XGTACX_site1417]	8.51 ± 0.33
ATACATATACACATATGTACATATGAAAAGAAAAAT [XGTACX_site6445]	8.94 ± 0.45
TTATTAGAAAAATGCACACCAAAAAAAAAAAAAAAA [CACACA_site2522]	8 ± 0.33
TTTTTATTTTATAATATATTCCTTTTCCTTTCTTTC [CACACA_negctrl_site245]	8.41 ± 0.35
TACATATATATAAATACACACACACCCACCTTATAA [CACACA_site9346]	8.95 ± 0.52
TATATATATTGTGTATGTACATATATATAAATATTG [XGTACX_site433]	8.51 ± 0.057
TACAAAAAGAATGAAAAATATATAATAAAAATAAAA [XGTACX_negctrl_site159]	8.49 ± 0.47
AAGACAACATAAATATGTACATATATTTATTATTTT [XGTACX_site1792]	8.55 ± 0.22
CACATACCTATATACACACACAAAATAATAAAATAA [CACACA_site7150]	8.68 ± 0.5
TATATATATATATTGACACACATGTATTTCAATATT [CACACA_site2832]	9.93 ± 0.47
ACTAATATTTTATAAAGTACAAATTAATAAAATTCA [XGTACX_site5817]	8.15 ± 0.25

Sequence	gcPBM binding intensity (ln)
AGAATGGATTAGCTAGCACACACAAAAAAAAAAAAA [CACACA_site8995]	8.48 ± 0.54
AAGTATGGAAAGGAATATAAATTAATACTTTCATTG [XGTACX_negctrl_site131]	8.34 ± 0.46
CTTATATATTGCCCTTCACACACACCCATATATATA [CACACA_site8795]	9.33 ± 0.37
TTTTGTAGATATGACTGTACATATTTTATACATAAC [XGTACX_site971]	8.47 ± 0.32
AAAAAATAAATAAATACACACAAATATATATATATA [CACACA_site2543]	10.2 ± 0.071
TAATATGTATATAAAAGTACAGACGATTATAATTAT [XGTACX_site173]	8.71 ± 0.38
AAGAAAAAAAAAATTACACACTGCGCAGATACACAA [CACACA_site1289]	8.85 ± 0.38
TGGTAATCCACATACACACACACATACACATATATA [CACACA_site2727]	8.74 ± 0.48
ATATATATATGTAAGAGTACACAAAAATATGTATGT [XGTACX_site4335]	9.62 ± 0.13
TACTATTTAAAATATGAACACACATTATTTGTTTTA [CACACA_site8870]	8.13 ± 0.3
CACAAAAATAAACACACACACATATATATTTATTAT [CACACA_site5923]	8.4 ± 0.36
GGAAACTAAAGGAATAAAACTATGGAAATTAATTAA [CACACA_negctrl_site1647]	8.62 ± 0.46
TAAATTAAAAGACACACACACAAAAAAAAAAAAAAA [CACACA_site7131]	8.24 ± 0.57
ATTCAAAATTATAGGTGTACGTATTTTTTTTTTTTT [XGTACX_site7177]	8.42 ± 0.34
TAAATTTATAAATCACGTACATATTTATTTATATTT [XGTACX_site4532]	8.38 ± 0.33
AGATGATATAATGGCACACAAATATTTTATTATAAA [CACACA_site3553]	8.45 ± 0.38
ATAATTTCATAATACGTGCACATAATATATAAAAAA	8.87 ± 0.014
AATAAAAATATATCCACACACATATATATATATGTA [CACACA_site576]	8.31 ± 0.34
ATATGAATATATATATGTACTAATTAGTAGTTTACG [XGTACX_site6273]	8.84 ± 0.4
GAAGATATGTAAAATTGTACATATTATTTTATTTTA [XGTACX_site5302]	8.1 ± 0.34
AGAAATTTACAAATACGTACACACATATATATATAT [XGTACX_site3141]	10.1 ± 0.23
TCATAACAACTTTGTGTGCACATAAAACATGTATAT	8.94 ± 0.3
TTTTTTTTTTCATTCACACAAAAAAAAAAAATTTAT [CACACA_site5921]	8.21 ± 0.35

Sequence	gcPBM binding intensity (ln)
TATAAGACATGATATATACACACCTTGTTTTAATTT [CACACA_site2266]	8.27 ± 0.27
TTTTACACTTTTTTTTGTACACACTAAAAAGATTAA [XGTACX_site8407]	8.54 ± 0.28
CAAATCATATATAGCACACAAATTCTTTATTATTAT [CACACA_site2815]	8.34 ± 0.18
AAAGGTTCATAAAAATGTACATAATTATTTACATGT [XGTACX_site2722]	8.43 ± 0.39
CTGATCCACATTTATACACACCTCGGTTTGTAGAGA [CACACA_site4393]	8.47 ± 0.47
AAAATATATAATATTTGTACATATTGATGGCAACAG [XGTACX_site6454]	8.56 ± 0.13
ATATAATTTGATGGTTAACACACATATATATTATAT [CACACA_site8775]	8.4 ± 0.4
TCATATAATCAAATATGTACATATTTTCAATTGAAT [XGTACX_site6831]	8.72 ± 0.38
ATATTTATTTAATGAACACACGATATATTATTTTAT [CACACA_site1602]	8.45 ± 0.35
TTATTTATTTTTTATACACACAATTATCTTTTTAAG [CACACA_site6162]	8.47 ± 0.49
ATATAGAATATATTAACATGCAATAAGTAAAGGGGG [TGCATGCA_site1022]	9.4 ± 0.11
CACTTCATAAAAATTGCACACATATAATAATGTACA [CACACA_site8692]	8.51 ± 0.23
ACAATGAAATATTCATGTACATATAAATAATAGTGT [XGTACX_site3762]	8.85 ± 0.41
AAAATGATAATACCAAGTACACATATGAAAAATACA [XGTACX_site6763]	8.9 ± 0.42
TAAAAACATTTAAATTGTACGGAAATAAAAATTTTT [XGTACX_site8225]	8.52 ± 0.34
TGTTTTCCCTTTAGTGTGCACGTATTTCTATTAACA [GTGCAC_site9847]	9.32 ± 0.36
TAAATCATTTATTAAGTGCAATATTCTTTTTGAGAT	8.365 ± 0.021
ATATAAATATTAAATACACACATTTTTGATTAGGTT [CACACA_site7461]	8.22 ± 0.34
TATTTCGTAATTTAATAATATACAAGAAATATATAT [XGTACX_negctrl_site143]	8.16 ± 0.47
TATGTGTATAATAAAAGTACATATATTATTATATAA [XGTACX_site8556]	8.38 ± 0.31
CATATAATAAAAAATGTACACACATAAGAAAATTTA [CACACA_site8943]	8.84 ± 0.51
TAAAATAATAAAACAACACACAAATAGTTAAAATAG [CACACA_site1680]	8.88 ± 0.41
ATTGACGTCATATAAACATGCACATTTTGGATGTTT [TGCATGCA_site985]	8.49 ± 0.33

Sequence	gcPBM binding intensity (ln)
TTTTTTTTAAATTGTGGTACACAAATTCATATATAT [XGTACX_site8944]	8.48 ± 0.41
TAAATATAATAAGAACAAACAAAATAGTACAATATA [TGCATGCA_negctrl_site364]	8.85 ± 0.42
TGTTAACTTAAAAAAATACCTACGGAAAAATCACAA [TGCATGCA_negctrl_site433]	8.51 ± 0.51
AAAAGAAAAAAAAGTACACACATGTATATTAATCGT [CACACA_site2528]	8.89 ± 0.46
GTCATATTATTATTACGTACTTAAATATATAATATA [XGTACX_site3405]	8.69 ± 0.25
TACAAAATACAAAAATGTACATAAAAATTTATAAAA [XGTACX_site6861]	8.7 ± 0.41
ATATTAAAATATAATCGTACAATTAAATTTTTTTTT [XGTACX_site2739]	8.2 ± 0.32
TACAGATACGGACACACACACACACCCAGACAAAAA [CACACA_site4432]	8.71 ± 0.43
AAGATAAACTTTTTTAATTAATTTAATTTTTTTTTT [GTGCAC_negctrl_site386]	8.24 ± 0.59
AATAAATAAAAAATTACACACATATTTATAAATATA [CACACA_site7584]	8.29 ± 0.49
TTATAATAGTTAATATGTACATATTTAATAAATAAT [XGTACX_site3183]	8.43 ± 0.2
CCCCCCCACGAACACACACACATACATACCACATAT [CACACA_site7149]	10.41 ± 0.028
TTTGTTTTTATTTACACATGCAAAAAAAAAAAAAAA [TGCATGCA_site655]	8.32 ± 0.28
TAAAATAAGTTAAAAAGTACATAATTATAATAAATA [XGTACX_site8108]	8.43 ± 0.39
CACAAAAATAAATATAAACACACAATAAATAAATAA [CACACA_site8197]	8.71 ± 0.36
ATATATATATATATTCCACACACACCCAAAAAAAAA [CACACA_site9215]	10.1 ± 0.24
AAAGGGACATATATATCACACACAAAAATTAGTCCC [CACACA_site8897]	8.85 ± 0.68
TAATATCTACATATATGTACATATATATATATATAT [XGTACX_site7979]	9.94 ± 0.4
TTATATATGTATTAATGTACATAGTTGAGAAAGGTA [XGTACX_site1511]	8.79 ± 0.49
ATAATATAGAACAATACATGCAAATGGCTTAAATTT [TGCATGCA_site521]	9.09 ± 0.26

Reference: the supplement of paper PMC11417369
